Test results taken from paper PMC11047111 (Proceedings of the National Academy of Sciences of the …, 2024).

Molecular target: T1, KCTD5 (human, UniProt Q9NXV2 1-234)
T1 sequence: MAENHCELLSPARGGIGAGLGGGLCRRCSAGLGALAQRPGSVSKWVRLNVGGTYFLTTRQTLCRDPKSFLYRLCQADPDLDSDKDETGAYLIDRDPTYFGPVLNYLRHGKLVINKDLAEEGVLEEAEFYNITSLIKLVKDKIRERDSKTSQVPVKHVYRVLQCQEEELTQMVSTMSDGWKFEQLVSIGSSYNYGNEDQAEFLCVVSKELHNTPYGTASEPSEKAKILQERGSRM
Test: SEC

B1: CUL3^NTD (N-terminal domain of cullin 3, […]) (domain or fragment)
chain: not shown
For B1, the “stoichiometry N” value was 1 CUL3^NTD per KCTD5 (molar ratio).
